The assay has as its system Ba/F3-FL-TYK2-P760L cells. Kind of assay: Anti-proliferative assay in Ba/F3-FL-TYK2-P760L cells (Cell-Titer Glo). The class given is cell-based. Particulars: 72 h, read-out: Baf3-FL-T2P760L (nM).

In the case of `[2H]C([2H])([2H])NC(=O)c1cnc(NC(=O)C2CC2)cc1Nc1ncc2cnn(COCC[Si](C)(C)C)c2c1OC` [Example 1, 6-(Cyclopropanecarboxamido)-4-((7-methoxy-1-((2-(trimethylsilyl)ethoxy)methyl)-1H-pyrazolo[4,3-c]pyridin-6-yl)amino)-N-(methyl-d3)nicotinamide], the IC50 came to 442 nM.

For the origin of these results see patent US20260284066A1, “TYK2 INHIBITORS AND COMPOSITIONS AND METHODS THEREOF” (LYNK PHARMACEUTICALS CO. LTD., priority 2023, published 2026).
